Test results: the supplement of paper PMC4604168 (melanoma cell lines)
The other results are listed elsewhere or left out. Single values are uncertain, as repeats are few or missing.

Legend:
Experiment in all cases: cell count relative to DMSO control; melanoma cells; higher = more viable cells
Conditions in all cases: library dose: low library concentration; 72 h
[1] = system: WM115
[2] = system: WM1716
[3] = system: WM1745
[4] = system: WM3526
[5] = system: WM3619
[6] = system: WM451Lu
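Note: cell number obtained by counting DAPI-stained nuclei in high-throughput microscope images with image analysis software, screen run in 1,536-well plates.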

Cc1cc(SCc2sc(-c3ccc(C(F)(F)F)c(F)c3)nc2C)ccc1OCC(=O)O + Oc1cc(-c2nc(-c3ccccc3)[nH]c2-c2ccncc2)ccc1Cl [L779450] (first compound 2 µM, partner dose 0.2 µM)
cell count [1]: 84.6%
cell count [2]: 117%
cell count [3]: 86.3%
cell count [4]: 72.4%
cell count [5]: 114%
cell count [6]: 94.9%

CCCCCCCCc1ccc(CCC(N)(CO)CO)cc1 [fingolimod] + O=C(Oc1ccc([N+](=O)[O-])cc1)N1CCC(C(O)(c2ccc3c(c2)OCO3)c2ccc3c(c2)OCO3)CC1 [JZL184] (first compound 2 µM, partner dose 1 µM)
cell count [1]: 89.4%
cell count [2]: 80%
cell count [3]: 85.4%
cell count [4]: 85.9%
cell count [5]: 101%
cell count [6]: 98.9%

CCCCCCCCCCCCCCCCCCOP(=O)([O-])OC1CC[N+](C)(C)CC1 [Perifosine] + O=C(Oc1ccc([N+](=O)[O-])cc1)N1CCC(C(O)(c2ccc3c(c2)OCO3)c2ccc3c(c2)OCO3)CC1 [JZL184] (first compound 0.4 µM, partner dose 1 µM)
cell count [1]: 101%
cell count [2]: 96.4%
cell count [3]: 120%
cell count [4]: 92%
cell count [5]: 137%
cell count [6]: 105%

COC(=O)c1sccc1S(=O)(=O)Nc1ccc(Nc2ccccc2)cc1OC + Cc1cc(SCc2sc(-c3ccc(C(F)(F)F)c(F)c3)nc2C)ccc1OCC(=O)O [GW0742] (first compound 1 µM, partner dose 2 µM)
cell count [1]: 89.8%
cell count [2]: 94.9%
cell count [3]: 89.6%
cell count [4]: 101%
cell count [5]: 94.8%
cell count [6]: 95.6%

CC(=O)O[C@@]12CO[C@@H]1C[C@H](O)[C@@]1(C)C(=O)[C@H](O)C3=C(C)[C@@H](OC(=O)[C@H](O)[C@@H](NC(=O)OC(C)(C)C)c4ccccc4)C[C@@](O)([C@@H](OC(=O)c4ccccc4)[C@H]21)C3(C)C [Docetaxel] + O=C(Oc1ccc([N+](=O)[O-])cc1)N1CCC(C(O)(c2ccc3c(c2)OCO3)c2ccc3c(c2)OCO3)CC1 [JZL184] (first compound 0.0001 µM, partner dose 1 µM)
cell count [1]: 55.9%
cell count [2]: 33.6%
cell count [3]: 46.5%
cell count [4]: 41.8%
cell count [5]: 52.3%
cell count [6]: 63.6%

N#CC[C@H](C1CCCC1)n1cc(-c2ncnc3[nH]ccc23)cn1 [ruxolitinib] + N.N.[Cl][Pt][Cl] [cisplatin] (first compound 1 µM, partner dose 1.6 µM)
cell count [1]: 107%
cell count [2]: 87%
cell count [3]: 88.4%
cell count [4]: 90.6%
cell count [5]: 102%
cell count [6]: 93%

O=C(O)c1ccc(-c2c[nH]c3ncc(-c4ccccc4)cc23)cc1C1CCCC1 + Cc1cc(SCc2sc(-c3ccc(C(F)(F)F)c(F)c3)nc2C)ccc1OCC(=O)O [GW0742] (first compound 0.16 µM, partner dose 2 µM)
cell count [1]: 97.1%
cell count [2]: 120%
cell count [3]: 94.6%
cell count [4]: 112%
cell count [5]: 98.2%
cell count [6]: 103%

CS(=O)(=O)CCNCc1ccc(-c2ccc3ncnc(Nc4ccc(OCc5cccc(F)c5)c(Cl)c4)c3c2)o1 [lapatinib] + Cc1cc(SCc2sc(-c3ccc(C(F)(F)F)c(F)c3)nc2C)ccc1OCC(=O)O [GW0742] (first compound 0.8 µM, partner dose 2 µM)
cell count [1]: 100%
cell count [2]: 94.6%
cell count [3]: 90.1%
cell count [4]: 104%
cell count [5]: 88.2%
cell count [6]: 108%

CN(C)S(=O)(=O)c1ccc2c(c1)/C(=C/c1cc3c([nH]1)CCCC3)C(=O)N2 + C/C(O)=C(\C#N)C(=O)Nc1cc(Br)ccc1Br [LFM-A13] (first compound 0.4 µM, partner dose 2 µM)
cell count [1]: 72.7%
cell count [2]: 111%
cell count [3]: 73.1%
cell count [4]: 90.3%
cell count [5]: 94.5%
cell count [6]: 111%

CC[C@]1(O)C[C@H]2CN(CCc3c([nH]c4ccccc34)[C@@](C(=O)OC)(c3cc4c(cc3OC)N(C=O)[C@H]3[C@@](O)(C(=O)OC)[C@H](OC(C)=O)[C@]5(CC)C=CCN6CC[C@]43[C@@H]65)C2)C1 [vincristine] + Cn1cc(C2=C(c3cn(C4CCN(Cc5ccccn5)CC4)c4ccccc34)C(=O)NC2=O)c2ccccc21 [Enzastaurin] (first compound 0.0001 µM, partner dose 0.8 µM)
cell count [1]: 75.8%
cell count [2]: 68.3%
cell count [3]: 88.8%
cell count [4]: 84.3%
cell count [5]: 68.8%
cell count [6]: 76.7%

CCCCCCCCc1ccc(CCC(N)(CO)CO)cc1 [fingolimod] + Cc1cc(SCc2sc(-c3ccc(C(F)(F)F)c(F)c3)nc2C)ccc1OCC(=O)O [GW0742] (first compound 2 µM, partner dose 2 µM)
cell count [1]: 90.8%
cell count [2]: 79.7%
cell count [3]: 70.3%
cell count [4]: 103%
cell count [5]: 75.9%
cell count [6]: 81.5%

NC(=O)c1ccc(N(C(N)=O)c2c(F)cccc2F)nc1-c1ccc(F)cc1F + Cc1cc(SCc2sc(-c3ccc(C(F)(F)F)c(F)c3)nc2C)ccc1OCC(=O)O [GW0742] (first compound 0.4 µM, partner dose 2 µM)
cell count [1]: 91%
cell count [2]: 110%
cell count [3]: 107%
cell count [4]: 108%
cell count [5]: 98.5%
cell count [6]: 110%

CC(=O)O[C@@]12CO[C@@H]1C[C@H](O)[C@@]1(C)C(=O)[C@H](O)C3=C(C)[C@@H](OC(=O)[C@H](O)[C@@H](NC(=O)OC(C)(C)C)c4ccccc4)C[C@@](O)([C@@H](OC(=O)c4ccccc4)[C@H]21)C3(C)C [Docetaxel] + C[As](C)SC[C@H](NC(=O)CC[C@H](N)C(=O)O)C(=O)NCC(=O)O [Darinaparsin] (first compound 0.0001 µM, partner dose 0.4 µM)
cell count [1]: 55.2%
cell count [2]: 41.1%
cell count [3]: 51.5%
cell count [4]: 51.9%
cell count [5]: 57.2%
cell count [6]: 53.2%

Cn1cnc2c(F)c(Nc3ccc(Br)cc3Cl)c(C(=O)NOCCO)cc21 [selumetinib] + O=C(Oc1ccc([N+](=O)[O-])cc1)N1CCC(C(O)(c2ccc3c(c2)OCO3)c2ccc3c(c2)OCO3)CC1 [JZL184] (first compound 0.015 µM, partner dose 1 µM)
cell count [1]: 95.6%
cell count [2]: 100%
cell count [3]: 106%
cell count [4]: 87.1%
cell count [5]: 86.4%
cell count [6]: 109%

O=C(/C=C/c1cccnc1)NCCCCC1CCN(C(=O)c2ccccc2)CC1 + C[As](C)SC[C@H](NC(=O)CC[C@H](N)C(=O)O)C(=O)NCC(=O)O [Darinaparsin] (first compound 0.01 µM, partner dose 0.4 µM)
cell count [1]: 91.2%
cell count [2]: 93.6%
cell count [3]: 115%
cell count [4]: 99.5%
cell count [5]: 123%
cell count [6]: 98.2%

CCN(CC)CCNC(=O)c1c(C)[nH]c(/C=C2\C(=O)Nc3ccc(F)cc32)c1C [sunitinib] + O=C(Oc1ccc([N+](=O)[O-])cc1)N1CCC(C(O)(c2ccc3c(c2)OCO3)c2ccc3c(c2)OCO3)CC1 [JZL184] (first compound 0.4 µM, partner dose 1 µM)
cell count [1]: 105%
cell count [2]: 110%
cell count [3]: 69.9%
cell count [4]: 94%
cell count [5]: 110%
cell count [6]: 78%

C[C@@H](N)c1ccc(C(=O)Nc2ccnc3[nH]ccc23)cc1 + N.N.[Cl][Pt][Cl] [cisplatin] (first compound 0.4 µM, partner dose 1.6 µM)
cell count [1]: 100%
cell count [2]: 77%
cell count [3]: 84.2%
cell count [4]: 115%
cell count [5]: 93.3%
cell count [6]: 95.5%

CC(C)(C)c1cnc(CSc2cnc(NC(=O)C3CCNCC3)s2)o1 + C/C(O)=C(\C#N)C(=O)Nc1cc(Br)ccc1Br [LFM-A13] (first compound 0.01 µM, partner dose 2 µM)
cell count [1]: 96.7%
cell count [2]: 74.4%
cell count [3]: 76.6%
cell count [4]: 91.8%
cell count [5]: 108%
cell count [6]: 101%

CO[C@@H]1[C@H](N(C)C(=O)c2ccccc2)C[C@H]2O[C@]1(C)n1c3ccccc3c3c4c(c5c6ccccc6n2c5c31)C(=O)NC4 [Midostaurin] + O=C(Oc1ccc([N+](=O)[O-])cc1)N1CCC(C(O)(c2ccc3c(c2)OCO3)c2ccc3c(c2)OCO3)CC1 [JZL184] (first compound 0.08 µM, partner dose 1 µM)
cell count [1]: 102%
cell count [2]: 99%
cell count [3]: 103%
cell count [4]: 112%
cell count [5]: 81.6%
cell count [6]: 96.5%

O=C(Nc1ccccc1)c1cc([N+](=O)[O-])ccc1Cl + C/C(O)=C(\C#N)C(=O)Nc1cc(Br)ccc1Br [LFM-A13] (first compound 2 µM, partner dose 2 µM)
cell count [1]: 96.9%
cell count [2]: 118%
cell count [3]: 85.6%
cell count [4]: 98.4%
cell count [5]: 119%
cell count [6]: 98.3%

Cc1cc(Nc2cc(N3CCN(C)CC3)nc(/C=C/c3ccccc3)n2)n[nH]1 + C/C(O)=C(\C#N)C(=O)Nc1cc(Br)ccc1Br [LFM-A13] (first compound 0.04 µM, partner dose 2 µM)
cell count [1]: 87.9%
cell count [2]: 100%
cell count [3]: 93.2%
cell count [4]: 95.2%
cell count [5]: 96.5%
cell count [6]: 86.9%

Cn1cncc1[C@@](N)(c1ccc(Cl)cc1)c1ccc2c(c1)c(-c1cccc(Cl)c1)cc(=O)n2C [tipifarnib] + Cc1cc(SCc2sc(-c3ccc(C(F)(F)F)c(F)c3)nc2C)ccc1OCC(=O)O [GW0742] (first compound 0.01 µM, partner dose 2 µM)
cell count [1]: 100%
cell count [2]: 93.7%
cell count [3]: 98.4%
cell count [4]: 86.2%
cell count [5]: 101%
cell count [6]: 109%

C[C@]1(c2nc3c(C(N)=O)cccc3[nH]2)CCCN1 [Veliparib] + O=C(Oc1ccc([N+](=O)[O-])cc1)N1CCC(C(O)(c2ccc3c(c2)OCO3)c2ccc3c(c2)OCO3)CC1 [JZL184] (first compound 1.4 µM, partner dose 1 µM)
cell count [1]: 82.9%
cell count [2]: 64.9%
cell count [3]: 84.1%
cell count [4]: 95.7%
cell count [5]: 139%
cell count [6]: 106%

CC(=O)c1c(C)c2cnc(Nc3ccc(N4CCNCC4)cn3)nc2n(C2CCCC2)c1=O [palbociclib] + Cc1cc(SCc2sc(-c3ccc(C(F)(F)F)c(F)c3)nc2C)ccc1OCC(=O)O [GW0742] (first compound 0.04 µM, partner dose 2 µM)
cell count [1]: 67.9%
cell count [2]: 65.9%
cell count [3]: 69.3%
cell count [4]: 63.6%
cell count [5]: 74.3%
cell count [6]: 69.5%
